In all, about 220,000 compounds went through this assay and about 16,000 (7.3%) were called active. The shares of active, inactive and inconclusive entries below differ from those in the screen. Calls follow the shape of the dose curve; as a rule, active = well fitted inhibition curve with a large enough effect (not every such curve was filed as active); inconclusive = small, poorly fitted or top-dose-only effect, or another doubt; inactive = no such curve, though single readings can be large or run the other way. Where the call is inconclusive, the potency comes from a doubtful curve fit.
The compounds below were run against Aldehyde dehydrogenase 1A1 (Homo sapiens) (UniProt P00352) (assay: qHTS Assay for Inhibitors of Aldehyde Dehydrogenase 1 (ALDH1A1)). Details: Purified ALDH1A1, NADH fluorescence, propionaldehyde substrate; series mostly up to 75.3 µM.
Chain of UniProt P00352 (P00352 whole entry, looked up): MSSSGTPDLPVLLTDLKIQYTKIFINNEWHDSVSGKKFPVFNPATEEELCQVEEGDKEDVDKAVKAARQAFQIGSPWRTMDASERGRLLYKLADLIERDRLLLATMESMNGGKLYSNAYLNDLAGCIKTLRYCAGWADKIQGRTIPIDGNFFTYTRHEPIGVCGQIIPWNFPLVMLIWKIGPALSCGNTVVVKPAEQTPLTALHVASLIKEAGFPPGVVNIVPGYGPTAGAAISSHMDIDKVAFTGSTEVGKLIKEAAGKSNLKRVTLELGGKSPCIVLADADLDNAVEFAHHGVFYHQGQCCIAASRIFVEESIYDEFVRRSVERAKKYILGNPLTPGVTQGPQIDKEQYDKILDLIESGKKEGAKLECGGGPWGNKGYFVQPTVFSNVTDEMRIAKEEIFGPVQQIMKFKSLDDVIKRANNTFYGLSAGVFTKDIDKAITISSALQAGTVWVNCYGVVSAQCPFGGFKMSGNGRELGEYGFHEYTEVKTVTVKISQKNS

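For activity, negative = inhibition in this document: plate controls were no enzyme wells and a reference inhibitor.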
Potency is read from the fitted curve at half-maximal effect; tags tell the direction and shape of the fitted curve.

Potency, inactive:
COc1ccc2c(c1)C(NC(C)=O)C(=O)N2C (stereo not drawn)
COc1cccc(-n2nc3c(=S)[nH]nc(C)c3c2C)c1
NC(=S)Nc1cccc2cccnc12
COCCNC(=O)CSCc1cc(C)cc(C)c1
Cn1ncc(Cl)c1C(=O)NCc1cc(C(C)(C)C)n[nH]1
O=C(COC(=O)c1ccc(S(=O)(=O)N2CCOCC2)cc1)NCc1cccs1
CCN(CC)CCNC(=O)c1ccc(NC(=O)c2ccc(Cl)c(S(=O)(=O)Nc3ccccc3OC)c2)cc1
CCCCCCCCCCCCCCCC(=O)N[C@@H](COP(=O)(O)O)C(=O)O
CCC/C=C(\CCC)C(NC(=O)c1ccccc1)c1ccc(C(=O)OC)cc1 (stereo not drawn)
CC(C)CN=c1cc(-c2ccccc2)oc2ccc(Cl)cc12
CCC(=O)c1cc(-c2nc3ccccc3n2C)n(C)c1
CCn1cc(C(=O)NCCCOC)c2cc(OC)c(OC)cc2c1=O
Cc1ccccc1C(=O)OCCN1CCOCC1
COC(=O)c1ccc(Cl)c(NC(=O)c2ccc(-c3ccccc3)cc2)c1
CCn1c(SCC(=O)Nc2nccs2)nnc1-c1ccco1
CN(C)c1ccc2c3c(ccc(N(C)C)c13)COC2

Potency, active:
COc1ccc(Nc2nc(-c3sc(N)nc3C)cs2)cc1 7.08 µM
CCOC(=O)c1c(CC(C)C)csc1/N=C/C1C(=O)CCCC1=O 11.2 µM
CC(C)(C)c1ccc(S(=O)(=O)Nc2ccc3c(c2)COC3=O)cc1 4.47 µM
Cc1ccc(S(=O)(=O)N/N=c2\oc3ccccc3cc2C(=O)Nc2cccc(C)c2)cc1 0.158 µM
CSc1nc(N)nc(SC2C=CCCC2)c1C#N (stereo not drawn) 12.6 µM
Nc1cccn2c(-c3ccc(Cl)cc3)cnc12 28.2 µM
NS(=O)(=O)c1ccc(NC(=S)NNC(=O)c2cccs2)cc1 12.6 µM
NNC(=O)c1[nH]c2ccc(Cl)cc2c1-c1ccccc1 1.12 µM
CN(CCCNS(=O)(=O)c1cccc2cccnc12)Cc1ccccc1 14.1 µM
COC(=O)/C=c1/sc2nc3ccccc3n2c1=O 10 µM
CC(=O)NC(=S)Nc1ccc(N2CCOCC2)c(S(=O)(=O)Nc2cc(Cl)ccc2Cl)c1 0.355 µM
Fc1ccc(N2CCN(C(c3cccs3)c3nnnn3CCc3ccccc3)CC2)cc1 (stereo not drawn) 1 µM
O=C(Nc1nnc(-c2ccccc2F)s1)C1CCCO1 (stereo not drawn) 20 µM

Potency, inconclusive:
CCN1CCN(c2cc(C(C)(C)C)nc3c(-c4ccccc4)c(C)nn23)CC1 31.6 µM [inhibitor, single point]
COc1ccc(-c2cc(N)n(S(=O)(=O)c3ccc(F)cc3)n2)cc1OC 31.6 µM [inhibitor, partial curve]
O=C(O)CCc1ccc(-c2cccs2)n1Cc1ccco1 25.1 µM [inhibitor, partial curve]
N[C@@H](Cc1ccccc1)c1nnc(SCc2ccccc2Cl)o1 25.1 µM [inhibitor, single point]
CC(C)Oc1cccc(C(=O)NC(=S)Nc2cccnc2)c1 39.8 µM [inhibitor, single point]
CSc1ccc(/C=N\NC(=O)COc2ccc(Cl)cc2Br)cc1 22.4 µM [inhibitor, single point]
CCOC(=O)/C(=C\C=C\N1CCOCC1)C(C)=O 25.1 µM [inhibitor, single point]
CC(C)(C)NC(=O)Cn1c(=O)c(=O)n(Cc2ccccc2)c2ccc(Cl)cc21 25.1 µM [inhibitor, partial curve]
Cc1nc2c(C)cccn2c1C(=O)c1ccccc1 31.6 µM [inhibitor, single point]
O=c1cc(CN2CC(O)Cc3ccc4ccccc4c32)nc2sccn12 (stereo not drawn) 39.8 µM [inhibitor, single point]
COc1ccc(/C=C2\CCc3ccccc3C2=O)c(OC)c1OC 12.6 µM [inhibitor, partial curve]
FC(F)(F)c1cnc(Sc2nc3nccc(-c4ccc(Cl)cc4)n3n2)c(Cl)c1 0.794 µM [inhibitor, partial curve, poor fit]
Oc1cccc(/C=N/c2c(-c3ccco3)nc3ccccn23)c1 20 µM [inhibitor, partial curve]
COc1cc(NC(=S)NC(C)(C)C)c(OC)cc1Cl 37.7 µM [inhibitor, single point]
O=C(CSc1ccc(-c2cccc([N+](=O)[O-])c2)nn1)N1CCCCC1 31.6 µM [inhibitor, single point]
CCN(CC)c1ccc(/C=N/NC(=O)c2c(Cl)cnn2C)c(O)c1 39.8 µM [inhibitor, single point]
COC(=O)c1c(C)nn(-c2ccc(F)c(Cl)c2)c1-c1cc(C)on1 44.7 µM [inhibitor, single point]
CCCn1c(=O)c(C)cn2nc(N)nc12 25.1 µM [inhibitor, partial curve]
Cc1onc(-c2ccccc2)c1C(=O)NCc1cccnc1 39.8 µM [inhibitor, single point]
COc1ccc(/C=N/S(=O)(=O)c2ccc(C)cc2)cc1 12.6 µM [inhibitor, partial curve]
COCCCn1c(CCC(=O)O)ccc1-c1cccs1 25.1 µM [inhibitor, partial curve]
CCCCNC(=O)CCc1nc2cccnc2n1Cc1ccc(OC)cc1 39.8 µM [inhibitor, single point]
Cc1ccc2[nH]c(=O)c(C(c3nnnn3CC3CCCO3)N3CCOCC3)cc2c1 (stereo not drawn) 39.8 µM [inhibitor, single point]
CC1Cc2ccccc2N1C(=O)Cn1c(=O)oc2cc(S(=O)(=O)N3CCCCC3)ccc21 (stereo not drawn) 3.16 µM [inhibitor, full curve]
NC(=O)c1sc2nc(-c3ccco3)ccc2c1N 2.82 µM [inhibitor, full curve]
CCn1cc(C2C(C(=O)Nc3cc(C)ccn3)=C(C)NC3=C2C(=O)CC(C)(C)C3)c(C)n1 (stereo not drawn) 23.8 µM [inhibitor, partial curve]
N#Cc1nc(-c2cccs2)oc1NCc1ccco1 17.8 µM [inhibitor, partial curve]
CCn1c2ccccc2c2cc(/C=N/NC(=O)c3ccc(O)cc3)ccc21 28.2 µM [inhibitor, partial curve]
Cc1nnc(SCC(=O)NC23CC4CC(CC(C4)C2)C3)n(N)c1=O 18.9 µM [inhibitor, partial curve, poor fit]
COc1ccc(-c2c3c(nc4sc(C(=O)Nc5cc(C)on5)c(N)c24)CCC3)cc1 28.2 µM [inhibitor, partial curve]
CCN1CCN(c2cc(C)c3cc(NC(=S)N4CCN(c5ccc(F)cc5)CC4)ccc3n2)CC1 25.1 µM [inhibitor, partial curve]
CC1Cc2ccccc2N1C(=O)CSc1nccc(=O)[nH]1 (stereo not drawn) 39.8 µM [inhibitor, single point]
C/C(=N\NC(=S)NC(C)C)c1ccco1 39.8 µM [inhibitor, single point]
CN1CCN(c2ncc3nc(-c4ccccc4)c(=O)n(CCC#N)c3n2)CC1 31.6 µM [inhibitor, partial curve]
Cc1cc(=O)oc(C)c1C(=O)NCc1c(F)cc(F)cc1F 35.5 µM [inhibitor, single point]
COc1cc(-c2nnc(-c3ccc(N4CCOCC4)cc3)o2)cc(OC)c1OC 22.4 µM [inhibitor, partial curve]
CCOc1cc(C(=O)Nc2nnc(CC)s2)ccc1OCC(=O)N1CCOCC1 39.8 µM [inhibitor, single point]
CCN1CCN(Cc2c(C)[nH]c3ccc(OC)cc3c2=O)CC1 39.8 µM [inhibitor, single point]
CN(c1cccc(NC(=O)c2ccc(C(C)(C)C)cc2)c1)S(C)(=O)=O 44.7 µM [inhibitor, single point]
COc1ccc(-c2nnc(Nc3nc4c(OC)cccc4s3)o2)cc1 31.6 µM [inhibitor, partial curve]
CCOc1ccc2oc(C(=O)OCC(=O)NC(=O)NC3CCCC3)c(C)c2c1 44.7 µM [inhibitor, single point]
CCCc1cc(=O)[nH]c(SCC(=O)c2cc(C)n(CCC)c2C)n1 31.6 µM [inhibitor, partial curve]
CC(=O)NS(=O)(=O)c1ccc(NC(=O)c2ccc(-n3nc(C)cc3C)cc2)cc1 1.58 µM [inhibitor, full curve, poor fit]

activity, negative = inhibition, inactive:
CC(=O)OC[C@@H]1O[C@@H](O/N=C2/C[C@@H](O)[C@@H](O)[C@@H]3[C@@H]4C(=O)N(C(C)(C)C)C(=O)[C@H]4CC[C@@H]23)[C@H](OC(C)=O)[C@H](OC(C)=O)[C@@H]1OC(C)=O 4.04% [at 13.5 µM]

— PubChem BioAssay AID1030 (National Center for Advancing Translational Sciences (NCATS), 2008)
